{"source": "patent US11904004B2", "about": "“Anti-CD277 antibodies” (INSTITUT NATIONAL DE LA SANTE ET DE LA RECHERCHE MEDICALE …, priority 2010, dated 2024)", "molecules": {"B1": {"name": "mAb 108.5: anti-CD277 (anti-BTN3A) antagonist antibody, VH SEQ ID NO:58, VL SEQ ID NO:60 (antibody, listed as Mus musculus, V domains shown)", "VH": "EVQLQQSGPELVKPGASMKISCKASGYSFTGFAINWVKQSHGQNLEWIGLIYPYNGGTTYSQRFKGKATLTVDKSSTTAYMELLSLTSEDSAVYYCARRRDGYSWFAYWGQGTLVTVSA", "VL": "DIVLTQSPASLAVSLGQRATISCRASESVENYGIIFMNWFQQKPGQPPKLLIFSASNQGSGVPARFNGSGSGTDFSLNIHPMEEDDTAMYFCQQSKEAPFTFGGGTKLEIK"}}, "system": "primary AML blasts", "experiment": "Chromium release assay, lysis of primary AML blasts by Vγ9Vδ2 T cells", "format": "cell-based, human", "details": "blocking/antagonist mAb added; E:T 30:1", "method": "Effector γδ T cells were established and maintained as previously described^28. PBMC from HV were stimulated with ZOL (1 μm) and rhlL-2 (200 IU/ml) at Day 0. From Day 5, rhIL-2 was renewed every two days and cells were kept at 1.5×10^6/m1 for 15 days. NK cells were isolated using EASYSEP® Human NK cell enrichment kit (StemCell Technologies). The purity of γδ T cells and NK cells was determined by flow cytometry and respectively greater than 80% and 98%. The Burkitt lymphoma cell line, DAUDI, the human AML cell line, U937, and the erythroleukemic cell line, K562, were obtained from the American Type Culture Collection and cultured (0.5×10^6/ml) in RPMI 1640 medium with 10% FCS. […]\n0.5×10^6 target cells were incubated with 50 pCi of ^51Cr (Perkin-Elmer) for AML blasts and 10 pCi for DAUDI and K562 cells for 90 minutes and mixed with effector cells in a Effector:Target (E:T) ratio of […]. After 4 hours of incubation at 37° C., 50p1 supernatant of each sample was transferred in LUMA® plates and radioactivity was determined by a gamma counter. The percentage of specific lysis was calculated using the formula [(experimental−spontaneous release/total−spontaneous release)×100] and expressed as the mean of triplicate.", "data": [{"molecule": "B1", "values": [{"measurement": "ZOL-induced lysis of AML blasts by Vγ9Vδ2 T cells", "result": "significantly and drastically abrogate"}]}]}
